The results in this text go back to ChEMBL document CHEMBL1201862, “PubChem BioAssay data set” (2004).

Structures are written as SMILES.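 Growth conditions: 96-well plates. Treatment: test compound, 48 hours, 5 concentrations. Analysis: linear interpolation between bracketing concentrations; unreached endpoints set to highest concentration. The concentration for 50% growth inhibition is given as GI50.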 Activity calls are given as the source filed them. Rule as the data show it: active = GI50 up to about 1.1 µM and inactive = higher.

The assay relates to NCI-H322M. Put plainly: NCI anticancer screen, dose series, 48 h.
In the case of `CC(=O)OCC1OC(n2cc(F)c(=O)[nH]c2=O)C(OC(C)=O)C1OC(C)=O` (stereo unspecified), the GI50 is inactive: > 38 µM. `Nc1c(C(=O)Nc2ccc([As](=O)(O)O)cc2)cnc2nnnn12`: the GI50 was inactive: > 100 µM. On to `Cc1cc(O)c(-c2cc(O)c(C)cc2O)cc1O`, for which the GI50 was inactive: 17.3 µM.

Regarding `COC1=C(N)C(=O)c2nc(C)ccc2C1=O`, the GI50 is inactive: 5.48 µM. As for `O=C(Nc1ccc([As](=O)(O)O)cc1)Nc1cccc(Cl)c1Cl`, the figure is inactive: > 100 µM. `CCOC(=O)CCC(C(=O)OCC)n1nnc2ccc(Nc3c(C)[n+]([O-])c4cc(F)c(OCC)cc4[n+]3[O-])cc21` (stereo unspecified): the GI50 was inactive: 45.6 µM.

With `CCOC(=O)c1c(N)sc2c1CC(C)CC2` (stereo unspecified), the GI50 is inactive: 37.5 µM. The figure for `CN(C)C1=Nc2ccccc2C(=S)N2CSCC12` (stereo unspecified) is inactive: > 100 µM; for `COc1ccc(/C=C2\CCC(CNc3ccc(S(N)(=O)=O)cc3)C2=O)cc1` (stereo unspecified) it is inactive: > 100 µM; for `Cc1cccc2c1C(=O)OC2(c1cccc2ccccc12)c1cccc2ccccc12` it is inactive: > 100 µM. In the case of `CCOC(=O)C=C1CCN(C(=O)c2ccccc2)CC1`, the GI50 was inactive: > 100 µM. `CNc1ccccc1-c1nc2ccccc2c(=O)o1`: the GI50 was inactive: > 100 µM.

For `CC1(O)C=CC(=O)C=C1`, the GI50 is inactive: > 39.4 µM. `COc1ccc(C(O)C(c2ccc(OCc3ccccc3)cc2)c2ccc(OCc3ccccc3)cc2)cc1` (stereo unspecified): the GI50 is inactive: > 100 µM. As for `COc1ccc(C2Oc3cc(OC)c(OC)cc3C2CCl)cc1OC` (stereo unspecified), the figure is inactive: > 100 µM. Take `COc1cc(OC)nc(-n2c(N)c(C(=O)O)c3ccc([N+](=O)[O-])cc3c2=O)n1`: the GI50 was inactive: > 100 µM.

In the case of `C=C(C(=C)P(=S)(c1ccccc1)c1ccccc1)P(=S)(c1ccccc1)c1ccccc1`, the GI50 is inactive: > 100 µM. With `COc1cc(/C=C2\C[C@H]3[C@@H]4CC=C5C[C@@H](O)CC[C@]5(C)[C@H]4CC[C@]3(C)C2=O)cc(OC)c1OC`, the GI50 is inactive: 41.1 µM. Take `N=C(N)N/N=C/c1ccc(O)c(C(=O)O)c1`: the GI50 is inactive: > 100 µM. `CCC(C)(C)/C(CC(O)(C(F)(F)F)C(F)(F)F)=N\O`: the GI50 was inactive: > 100 µM. Take `BrCC[N+]12CC[N+](CCBr)(CC1)C2`: the GI50 is inactive: > 100 µM. With `CCOC(=O)c1nc[nH]c1/N=N/N(C)N`, the GI50 is inactive: > 100 µM. With `OC(c1ccc(Br)cc1)(c1cccs1)C1CC1` (stereo unspecified), the GI50 was inactive: 30.1 µM.

In the case of `C/C(=N/NS(=O)(=O)c1ccc([N+](=O)[O-])cc1)c1cccc[n+]1[O-]`, the GI50 is inactive: > 100 µM. On to `CCOC(=O)C1=NN(c2ccc(C)cc2)C2=CC(C)=NN(C)C(=S)N21`, for which the GI50 was inactive: > 100 µM.

For the molecule `CCOC1=C2N=C(C(CC)c3ccc(F)cc3)N=C2C(=O)c2ccccc21` (stereo unspecified), the GI50 was inactive: 48.9 µM. With `Cc1ccc(-c2nnc3s/c(=C\c4ccc(N(C)C)cc4)c(=O)n23)cc1`, the GI50 is inactive: 67 µM. The figure for `COc1ccc(C(OCC2OC(n3cc(C)c(=O)[nH]c3=O)CC2n2cc(Cn3cc(Br)c(=O)[nH]c3=O)nn2)(c2ccccc2)c2ccccc2)cc1` (stereo unspecified) is inactive: > 100 µM.

Regarding `O=S(=O)(O)c1ccc(Nc2ccnc3cc(Cl)ccc23)cc1`, the GI50 is inactive: > 100 µM. For the molecule `Cc1cn(Cc2cnnn2CC2OC(n3cc(C)c(=O)[nH]c3=O)CC2O)c(=O)[nH]c1=O` (stereo unspecified), the GI50 is inactive: > 100 µM. Regarding `O=C1NCN(c2ccccc2)C12CCN(CCCN1CCN(CCOC(c3ccc(F)cc3)c3ccc(F)cc3)CC1)CC2`, the GI50 is inactive: 1.97 µM. Consider `C/C(=C1/N=C(c2cc([N+](=O)[O-])ccc2Cl)N(C2=CC=C(Cl)CC2)C1=O)c1cc2ccccc2oc1=O`, for which the GI50 was inactive: 64.4 µM. For the molecule `CC(=O)c1ccc2c3c1O[C@H]1c4[nH]c5ccccc5c4C[C@@]4(O)[C@@H](C2)N(CC2CC2)CC[C@]314`, the GI50 is active: 0.0542 µM. Turning to `CSCCCCCCCCCCOc1ccc(C=C2C(=C(C#N)C#N)c3ccccc3C2=C(C#N)C#N)cc1`, the GI50 is inactive: 16.9 µM. The figure for `COc1cc(C(C[N+](=O)[O-])SC(C)=O)ccc1OCc1ccccc1` (stereo unspecified) is inactive: 8.22 µM; for `Nc1cccc2nnccc12` it is inactive: > 100 µM; for `CN(CCCNC(=O)c1nn(-c2ccccc2)c2c1ccc1ccccc12)CCCNC(=O)c1nn(-c2ccccc2)c2c1ccc1ccccc12` it is inactive: 1.88 µM. For the molecule `O=C(c1cccs1)c1nccc2c1cnc1ccccc12`, the GI50 is inactive: > 100 µM. Consider `N#CC(C#N)C1CN2CCC1CC2` (stereo unspecified), for which the GI50 is inactive: > 100 µM. For `Cc1cc(C)c(S(=O)(=O)N(CCCN)OCCON(CCCN)S(=O)(=O)c2c(C)cc(C)cc2C)c(C)c1`, the GI50 was inactive: 2.83 µM. For the molecule `CC1=CC(=O)N(n2c(C)n[nH]c2=O)C1=O`, the GI50 is inactive: > 100 µM. Regarding `CC1=NN(C(=O)c2ccccc2O)C(=O)/C1=C/c1c(O)ccc2ccccc12`, the GI50 is active: 0.71 µM. For the molecule `CCOC(=O)NC(=O)c1cn(CCCCCCOC(=O)NCCCCCCNC(=O)OCCCCCCn2cc(C(=O)NC(=O)OCC)c(=O)[nH]c2=O)c(=O)[nH]c1=O`, the GI50 is inactive: > 100 µM. With `Nc1ccn(CC(O)c2cc3ccccc3[nH]2)c(=O)n1` (stereo unspecified), the GI50 is inactive: > 100 µM. The figure for `COc1ccc2c(c1)CCc1c(CO)c(COC(=O)NC(C)C)n(C)c1-2` is inactive: 19.4 µM; for `CC1=NN(c2cccc(Cl)c2)C2(C1)SCC(=O)N2c1nc2ccccc2s1` (stereo unspecified) it is inactive: 26.4 µM; for `C#Cc1c(C)c(/C=C/C(C)=C\C(=O)OC)n(C)c1C` it is inactive: > 100 µM. With `CCOC(=O)c1cc(C)nc2c1c(=O)n(-c1ccccc1)c(=O)n2CCCCN1CCN(c2ncccn2)CC1`, the GI50 is inactive: 85.5 µM. As to `O=C(O)CN1C(=O)OC(c2ccccc2)C1=O` (stereo unspecified), the GI50 was inactive: > 100 µM. Consider `CC1=NN(c2nc(N)nc(CO)n2)C(C)(C)C1`, for which the GI50 was inactive: > 100 µM. With `CC1=C(Oc2ccccc2)C(CCC(=O)O)c2c(O)cc(Cl)c(O)c21` (stereo unspecified), the GI50 is inactive: > 100 µM. As to `Cc1ccc2cc3cccc(C(=O)NCCN(C)C)c3nc2c1`, the GI50 is active: 1.07 µM. As for `COc1c(Cl)ccc(Cl)c1C(=O)NNC(=O)c1c(Cl)c(Cl)c(Cl)c(Cl)c1-c1nc2cc(C(=O)c3ccccc3)ccc2[nH]1`, the GI50 was inactive: > 100 µM. As for `Cc1ccc([S+]([O-])C[C@](NC(=O)OCc2ccccc2)(Sc2ccccc2)C(F)F)cc1` (stereo partly specified), the GI50 is inactive: 17.9 µM. On to `Cc1ccc(Nc2nc(=O)c3c([nH]c4ccccc43)s2)cc1`, for which the GI50 was inactive: 13.5 µM. Regarding `CC(=O)O[C@H]1C(=O)[C@@]2(C)[C@H]([C@H](OC(=O)c3ccccc3)[C@@]3(O)C[C@H](O)C(C)=C1C3(C)C)[C@]1(OC(C)=O)CO[C@@H]1C[C@@H]2O`, the GI50 was inactive: 42 µM.

With `Cc1nnc2n1N=C(c1cc(F)c(Cl)cc1Cl)/C(=C/c1ccc(-c3ccc([N+](=O)[O-])cc3)o1)S2`, the GI50 was inactive: > 100 µM. On to `COc1ccc(C2=C(Cl)c3cc(OC)c(OC)cc3C2Cl)cc1` (stereo unspecified), for which the GI50 is inactive: 16 µM. With `Cc1cc(N(C)C)ccc1/N=N/c1ccc2ncccc2c1`, the GI50 was inactive: 67.8 µM. As for `C[P+](c1ccccc1)(c1ccc(Cl)cc1)c1ccc(Cl)cc1`, the figure is inactive: 23.1 µM; as for `CCC1(C)C=Cc2c(cc(O)c3c(=O)c4ccccc4n(C)c23)O1` (stereo unspecified), inactive: > 10 µM. `CCCN(CCC)CCc1ccc(OC2=CCN(C)CC2)cc1`: the GI50 was inactive: > 100 µM.

In the case of `Cc1cccc(C)c1N1C(=O)C(=O)C(c2nc3ccccc3s2)/C(=N/NC(=O)c2ccccc2O)C1=O` (stereo unspecified), the GI50 is inactive: 58.9 µM. For `CCOC(=O)/C(C(=O)Nc1ccc(Cl)cc1)=C(/N)N1CCCC1`, the GI50 was inactive: > 100 µM. As to `Cc1ccc2c(sc(-c3ccc4c(c3)sc(-c3ccc(N(C)C)cc3)[n+]4C)[n+]2C)c1S(=O)(=O)O.Cc1ccc2c(sc(-c3ccc4c(c3)sc(-c3ccc5c(c3)sc(-c3ccc(N(C)C)cc3)[n+]5C)[n+]4C)[n+]2C)c1S(=O)(=O)O`, the GI50 was inactive: > 100 µM. `Cc1c(C)c(S(=O)(=O)N(CCCN)OCCCN)c(C)c2c1OC(C)(C)CC2`: the GI50 is inactive: 17 µM. Consider `c1ccc(COC2(OCc3ccccc3)CC3OC2C2NN=NC32)cc1` (stereo unspecified), for which the GI50 is inactive: 75.3 µM. `O=S(=O)(O)SCCNCCCCCC1CCCCC1`: the GI50 is inactive: 8.85 µM. Consider `CN1C(=O)c2ccccc2OC12C=Cc1c(ccc3ccccc13)O2` (stereo unspecified), for which the GI50 is inactive: 15.2 µM. As for `CCN(CC)CCNC(=O)c1cc2cc(NC(=O)c3cc4cc(NC(=O)c5cc6cc(N)ccc6[nH]5)ccc4[nH]3)ccc2[nH]1`, the figure is inactive: > 100 µM. As for `O=[N+]([O-])c1ccc(C2Nn3c(nnc3-c3cccc([N+](=O)[O-])c3)S2)cc1` (stereo unspecified), the figure is inactive: > 100 µM.

Consider `N#COc1ccc(Oc2ccc(OC#N)cc2)cc1`, for which the GI50 was inactive: > 100 µM.

For `O=C(/C=C/c1ccccc1O)/C=C/c1ccccc1O`, the GI50 is inactive: 2.23 µM.

Regarding `O=C(O)Cc1cccc2c1Oc1ccccc1S2`, the GI50 is inactive: > 100 µM.

Regarding `C[C@@H](CC(O)C(O)C(C)(C)O)C1CCC23CC12CCC1[C@@]2(C)CCC(O)C(C)(C)C2CC(OC2OC(CO)C(O)C(O)C2O)[C@]13C` (stereo partly specified), the GI50 is inactive: > 10 µM.

As to `CC(=O)NCCc1c[nH]c2ccc(Cl)cc12`, the GI50 is inactive: > 100 µM. As for `Cc1ccccc1CN1CC2=C(CCN(Cc3ccccc3)C2=O)N2CCN=C12`, the figure is inactive: 19.8 µM; as for `COc1cccc(OC)c1C(=O)OCc1ccccc1`, inactive: > 100 µM. Regarding `COc1ccc(-c2oc3cc(OC)ccc3c(=O)c2O)cc1`, the GI50 is inactive: 4.43 µM. With `CCc1nc(N)nc(N)c1-c1ccc([N+](=O)[O-])c(NCc2ccccc2)c1`, the GI50 was inactive: 16 µM. The figure for `Cc1cc(C)cc(Sc2c([N+](=O)[O-])ncn2C)c1` is inactive: 30.6 µM.
